# Assay results reported in PubChem BioAssay (Tox21).
# Values joined by “and” are separate entries in the source; they are usually repeats but may differ in a detail not shown here. Equal entries are not always repeated. The shares of active, inactive and inconclusive entries below differ from those in the screen. Potencies beside an inconclusive call are fits to weak or partial responses and may not hold up. Active and inactive are the calls of the source. Unless noted, calls follow the shape of the dose curve; as a rule, active = well fitted curve in the direction sought with a large enough effect in the repeat runs; inconclusive = weak or mixed curves; inactive = no such curve, though single readings can be large; an effect the other way counts as inactive or inconclusive.
# Experiments:
# [1] = qHTS assay to identify small molecule antagonists of the thyroid receptor (TR) signaling pathway - cell viability counter screen (AID 743064); conditions: GH3.TRE-Luc viability, CellTiter-Fluor, 24 h; activity change, negative = cytotoxic: at 70.3 µM (top of the series) unless noted; also: nearly all actives have a fitted effect of over 50% in size; as to activity change, negative = cytotoxic: % is scaled to controls: 0 for no effect and ±100 for the full control effect
# Procedure, shortened: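 Rat GH3 pituitary tumor cells stably expressing two TR response elements driving luciferase were plated, rested 4 h, then dosed with library compounds and T3 (1 nM final). After 23.5 h at 37 °C, CellTiter-Fluor was added for 30 min and fluorescence recorded.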
# [2] = qHTS assay to identify small molecule antagonists of the thyroid receptor (TR) signaling pathway (AID 743065); also: nearly all actives have a fitted effect of over 55% in size; as to activity, negative = inhibition: % is scaled to controls: 0 for no effect and ±100 for the full control effect
# Procedure, shortened: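 Antagonism measured as loss of luciferase signal in GH3 cells stably carrying a TRE-luciferase reporter, co-treated with compound and T3 (1 nM final) for 23.5 h at 37 C. Viability was read in the same well by CellTiter-Fluor.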
# [3] = system: thyroid hormone receptor (rat, GH3 cells); experiment: qHTS assay to identify small molecule agonists of the thyroid receptor (TR) signaling pathway (AID 743066; calls by dose curve; as to activation: % is scaled to controls: 0 for no effect and ±100 for the full control effect); conditions: GH3.TRE-Luc cells, TR agonist luciferase, 24 h; activation: at 83.9 µM (top of the series) unless noted
# [4] = qHTS assay to identify small molecule antagonists of the estrogen receptor alpha (ER-alpha) signaling pathway - cell viability counter screen (AID 743074; calls by dose curve;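 also: HEK293 cells carrying ER-alpha-UAS-bla reporter stimulated with 17beta-estradiol; nearly all actives have a fitted effect of over 45% in size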)
# [5] = target: Estrogen receptor (Homo sapiens) (UniProt P03372); experiment: qHTS assay to identify small molecule antagonists of the estrogen receptor alpha (ER-alpha) signaling pathway (AID 743069; active = well fitted curve in the direction sought with a large enough effect in the signal ratio in the repeat runs, not every such curve was filed as active; inconclusive = weak or mixed curves, or effect the other way; inactive = no such curve, though single readings can be large or run the other way; the % refers to the signal ratio; as to activity, negative = inhibition: % is scaled to controls: 0 for no effect and ±100 for the full control effect); conditions: HEK293 ER-alpha-UAS-bla, beta-lactamase ratio, antagonist mode; activity, negative = inhibition: at 69.4 µM (top of the series) unless noted
# UniProt P03372, sequence (P03372 whole entry, looked up): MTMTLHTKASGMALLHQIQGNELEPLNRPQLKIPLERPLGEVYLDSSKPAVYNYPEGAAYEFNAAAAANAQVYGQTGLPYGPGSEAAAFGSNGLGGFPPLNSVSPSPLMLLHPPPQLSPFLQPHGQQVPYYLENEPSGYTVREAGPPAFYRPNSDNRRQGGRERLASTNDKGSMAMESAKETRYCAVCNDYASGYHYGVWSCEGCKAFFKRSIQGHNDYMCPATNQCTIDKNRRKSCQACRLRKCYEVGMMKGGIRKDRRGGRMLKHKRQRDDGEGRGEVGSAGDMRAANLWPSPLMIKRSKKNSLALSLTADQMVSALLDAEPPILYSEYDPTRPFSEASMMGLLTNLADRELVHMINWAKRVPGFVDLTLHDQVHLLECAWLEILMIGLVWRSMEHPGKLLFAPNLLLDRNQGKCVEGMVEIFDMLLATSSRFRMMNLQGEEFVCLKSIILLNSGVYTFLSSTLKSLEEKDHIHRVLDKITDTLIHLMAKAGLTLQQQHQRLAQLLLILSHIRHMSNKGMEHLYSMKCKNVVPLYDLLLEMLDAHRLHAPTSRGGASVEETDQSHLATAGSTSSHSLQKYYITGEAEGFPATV
# Procedure, shortened: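 Antagonist mode: compounds in DMSO were co-added with 17beta-estradiol to ER-alpha-bla HEK293 cells (2% charcoal-stripped serum) and left 18 h at 37C. Reporter inhibition was measured as FRET fluorescence after 2 h LiveBLAzer substrate at room temperature.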
# Potency is read from the fitted curve at half-maximal effect; tags tell the direction and shape of the fitted curve or compound fluorescence and quenching.
smiles,measurement,setting,value
CCCCCc1cccc(=O)o1,Potency,[1],inactive
CCC(C)C(C)=O (centres undefined),Potency,[1],inactive
CN1[C@@H]2CC[C@H]1CC(OC(=O)C(CO)c1ccccc1)C2 (some centres undefined),Potency,[1],"inconclusive: 0.154 µM [rising, full curve]"
O=C1NC(=O)C2CC=CCC12 (centres undefined),Potency,[1],inactive
CCCNC(C)(C)COC(=O)c1ccccc1,Potency,[1],"inconclusive: 33.5 µM [cytotoxic, partial curve, poor fit]"
O=C(O)CC(C(=O)O)C(CC(=O)O)C(=O)O (centres undefined),Potency,[1],"inconclusive: 30.1 µM [rising, full curve]"
C[n+]1ccn(CCO)c1,Potency,[1],"inconclusive: 15.4 µM [rising, single point]"
CCC(C)(C)C,Potency,[1],"inconclusive: 25.8 µM [cytotoxic, single point]"
CO[C@@]1(NC(=O)CSCC#N)C(=O)N2C(C(=O)O)=C(CSc3nnnn3C)CS[C@@H]21,"activity change, negative = cytotoxic",[1],inconclusive: 30%
NNS(=O)(=O)c1ccc(Oc2ccc(S(=O)(=O)NN)cc2)cc1,Potency,[1],inactive
Cc1c(N)cccc1[N+](=O)[O-],Potency,[1],"inconclusive: 9.85 µM [rising, partial curve]"
O=C(O)c1nc(Cl)c(Cl)c(Cl)c1Cl,Potency,[1],inactive
CCN(CC)c1ccc(C(=O)c2ccccc2C(=O)O)c(O)c1,Potency,[1],"inconclusive: 61.1 µM [rising, single point]"
same,Potency,[2],"inconclusive: 61.3 µM [inhibitor, partial curve]"
CNCCC(Oc1ccccc1OC)c1ccccc1 (centres undefined),Potency,[1],"inconclusive: 33.5 µM [cytotoxic, partial curve, poor fit]"
same,Potency,[2],inconclusive: 21.1 µM [inhibitor]
CCCCC(=O)O,Potency,[1],"inconclusive: 30.9 µM [rising, full curve]"
same,"activity change, negative = cytotoxic",[1],inconclusive: 33.3%
Cc1cccnc1,Potency,[1],inactive
same,Potency,[2],inactive
CC(C)c1ccccc1C(C)C,Potency,[1],active: 54.5 µM
same,Potency,[2],active: 61.2 µM
CC(C)=CCC/C(C)=C\C#N,Potency,[1],"inconclusive: 68.6 µM [cytotoxic, single point]"
same,Potency,[2],"inconclusive: 68.6 µM [inhibitor, single point]"
same,Potency,[3],"inconclusive: 77 µM [activator, partial curve, poor fit]"
CN(C)CCOCCN(C)CCO,Potency,[1],inactive
same,Potency,[2],inactive
Clc1ccc(Cn2c(CN3CCCC3)nc3ccccc32)cc1,Potency,[1],inconclusive: 12.7 µM [cytotoxic]
same,Potency,[2],active: 11.4 µM
OC[C@H]1O[C@H](O[C@]2(CCl)O[C@H](CCl)[C@@H](O)[C@@H]2O)[C@H](O)[C@@H](O)[C@H]1Cl,Potency,[1],"inconclusive: 10.9 µM [rising, single point]"
same,Potency,[2],inactive
OCCOCCN1CCN(C2=Nc3ccccc3Sc3ccccc32)CC1,Potency,[1],"inconclusive: 33.5 µM [cytotoxic, single point] and inconclusive: 9.44 µM [cytotoxic, partial curve]"
same,Potency,[2],"inconclusive: 33.5 µM [inhibitor, single point] and inconclusive: 11.9 µM [inhibitor, single point]"
CC(N)C(=O)OC(C)(C)Cc1ccc(Cl)cc1 (centres undefined),Potency,[1],"inconclusive: 23.7 µM [cytotoxic, partial curve]"
same,Potency,[2],"inconclusive: 18.8 µM [inhibitor, partial curve]"
CCOC(=O)CC(=O)OCC,Potency,[1],"inconclusive: 0.0745 µM [rising, single point]"
same,Potency,[2],inactive
C/C=C/C=C/CCCCCCCO,Potency,[1],inconclusive: 68.6 µM [cytotoxic]
CC(=O)c1nccs1,Potency,[1],"inconclusive: 2.52 µM [rising, single point]"
same,"activity change, negative = cytotoxic",[1],inconclusive: 14.9%
same,Potency,[4],"inconclusive: 0.0452 µM [rising, full curve, poor fit]"
CCCCCCCCCCCCOCCOS(=O)(=O)O,Potency,[1],"inconclusive: 68.6 µM [cytotoxic, single point]"
same,Potency,[2],active: 68.6 µM
same,Potency,[3],inactive
same,Potency,[5],"inconclusive: 54.9 µM [inhibitor, partial curve]"
O=C(CCN1CCN2CCCC2C1)N1c2ccccc2Sc2ccc(Cl)cc21 (centres undefined),Potency,[1],active: 21.1 µM
same,Potency,[2],active: 18.8 µM
same,activation,[3],inconclusive: -7.14% [phenotype inactive]
C=C(C)C(N)=O,Potency,[1],"inconclusive: 38.9 µM [rising, partial curve]"
same,Potency,[2],inactive
same,Potency,[3],inactive
same,Potency,[5],inactive
same,Potency,[4],"inconclusive: 22.1 µM [rising, single point]"
CC(C)NC[C@@H](O)COc1cccc2ccccc12,Potency,[1],"inconclusive: 33.5 µM [cytotoxic, partial curve, poor fit]"
same,Potency,[2],inconclusive: 29.8 µM [inhibitor]
OC(C#CCN1CCCC1)(c1ccccc1)c1ccccc1,Potency,[1],"inconclusive: 29.8 µM [cytotoxic, single point]"
same,Potency,[2],"inconclusive: 26.6 µM [inhibitor, partial curve]"
CCN(CC)CCOc1ccc2c(c1)C(=O)c1cc(OCCN(CC)CC)ccc1-2,Potency,[1],inconclusive: 10.6 µM [cytotoxic]
same,Potency,[2],"inconclusive: 26.6 µM [inhibitor, partial curve]"
COC(=O)c1ccccc1C(=O)c1ccc(OCCN2CCCCC2)cc1,Potency,[1],"inconclusive: 33.5 µM [cytotoxic, single point]"
same,Potency,[2],"inconclusive: 29.8 µM [inhibitor, single point]"
same,Potency,[3],inactive
CCCCNC(=O)NS(=O)(=O)c1ccc(C)cc1,Potency,[1],inactive
same,Potency,[2],inactive
same,Potency,[3],inactive
same,Potency,[4],"inconclusive: 61.6 µM [cytotoxic, single point]"
COC(=O)Nc1ccc(Cl)c(Cl)c1,Potency,[1],"inconclusive: 68.2 µM [cytotoxic, single point]"
same,Potency,[2],active: 60.8 µM
OC(CN1CCC(Cc2ccc(F)cc2)CC1)c1ccc(Cl)cc1 (centres undefined),Potency,[1],"inconclusive: 0.119 µM [rising, single point]"
same,Potency,[2],"inconclusive: 11.9 µM [inhibitor, single point]"
O=C(CS)OCCOC(=O)CS,Potency,[1],inactive
same,Potency,[2],"inconclusive: 48.6 µM [inhibitor, partial curve]"
CC(Cc1ccccc1)(NC(=O)CN)c1ccccc1 (centres undefined),Potency,[1],"inconclusive: 18.8 µM [cytotoxic, partial curve, poor fit]"
same,Potency,[2],"inconclusive: 26.6 µM [inhibitor, partial curve, poor fit]"
C=CC(C)(O)CC/C=C(\C)CCC=C(C)C (centres undefined),Potency,[1],inactive
same,Potency,[2],inconclusive: 11.9 µM [inhibitor]
[O-][N+](=Nc1ccccc1)c1ccccc1,Potency,[1],"inconclusive: 68.6 µM [cytotoxic, partial curve, poor fit]"
same,Potency,[2],inconclusive: 77 µM [inhibitor]
CCC(C)c1cc(C(C)(C)C)c(O)c(C(C)(C)C)c1 (centres undefined),Potency,[1],inactive
same,Potency,[2],"inconclusive: 23.9 µM [inhibitor, full curve, poor fit]"
same,Potency,[3],active: 10.7 µM
O=C1[C@H](CC[C@H](O)c2ccc(F)cc2)[C@@H](c2ccc(O)cc2)N1c1ccc(F)cc1,Potency,[1],"inconclusive: 18.8 µM [cytotoxic, partial curve]"
same,Potency,[2],"inconclusive: 26.6 µM [inhibitor, partial curve]"
NC(=O)C1(N2CCCCC2)CCN(CCCC(=O)c2ccc(F)cc2)CC1,Potency,[1],inactive
same,Potency,[2],"inconclusive: 21.1 µM [inhibitor, partial curve, poor fit]"
NC(N)=NC(=O)Cc1c(Cl)cccc1Cl,Potency,[1],"inconclusive: 29.8 µM [cytotoxic, single point]"
same,Potency,[2],"inconclusive: 29.8 µM [inhibitor, single point]"
CC(=O)Nc1ccccc1,Potency,[1],"inconclusive: 68.9 µM [rising, single point]"
same,Potency,[2],inactive
